Measured values from PubChem BioAssay AID588549 (Broad Institute, 2011).
Hit rate of the full screen: of about 360,000 compounds, about 780 (0.22%) were called active. Inconclusive means that the source gave no clear call. Such entries were picked first, then a sample of the others. No stated cut-off is given here; in the data, active means inhibition above about 8.5% (passing the limit was not always enough); inconclusive means no clear call, values can overlap the other calls.

What follows are molecules tested on Mycobacterium tuberculosis FadD28 fatty-acid-AMP ligase (assay: inhibitors of FadD28 bisubstrate probe binding, primary screen, biochemical, fluorescence polarization, single point (AID 588549)). Conditions: at 12.5 µM, active compounds read high.

| SMILES | inhibition |
| --- | --- |
| Cn1cc([N+](=O)[O-])c(C(=O)Nc2ccc(C3CCCCC3)cc2)n1 | inconclusive: 6.86% |
| Cc1ccccc1-c1cc(C(=O)N2CCCC2)c2ccccc2n1 | inconclusive: 6.16% |
| O=C(NCCS(=O)(=O)N1CCN(c2cccc(Cl)c2)CC1)c1cc(=O)c2ccccc2o1 | inconclusive: 3.9% |
| Cc1ccc(OCCCN2CCOCC2)cc1 | inconclusive: 3.66% |
| COc1ccc(OC)c(C2C(C(=O)c3cc4ccccc4o3)=C(O)C(=O)N2c2cc(C)on2)c1 (stereo not given) | inconclusive: 7.23% |
| Cc1cc(C(=O)N/N=C/c2ccc(-c3ccc([N+](=O)[O-])cc3C)o2)n[nH]1 | inactive: 0.596% |
| CCN(CC)c1ccc(/C=N/NC(=O)Cc2cccs2)c(O)c1 | inconclusive: 10.2% |
| O=[N+]([O-])c1cc(Cl)ccc1Nc1ccccc1 | inconclusive: 3.36% |
| CN1c2ccccc2C(O)=C(C(=S)Nc2ccc(Cl)cc2)S1(=O)=O | inconclusive: 8.69% |
| COc1ccc(OC)c2[nH]c(=O)c(CCNS(=O)(=O)c3ccc(Cl)cc3)cc12 | inconclusive: 4.66% |
| N#C/C(=N\Nc1ccc([N+](=O)[O-])cc1)C(N)=S | inconclusive: 4.65% |
| O=C(NN1C(=O)/C(=C/c2ccc(O)cc2)SC1=S)c1cccc(O)c1 | active: 19.1% |
| COc1ccc(C(=O)NCCSCc2ccc(C)cc2)cc1 | inconclusive: 8.6% |
| CSc1ccc(Cl)c(C(=O)Nc2ccc(Cl)cn2)c1 | inactive: -1.5% |
| Cn1cc(/C=C2\SC(=S)N(NC(=O)c3ccccc3)C2=O)c2ccccc21 | inactive: 1.96% |
| COc1cc(/C=N/NC(=O)Cn2nc([N+](=O)[O-])cc2C)cc(Br)c1OCc1ccccc1 | inconclusive: 7.5% |
| Cc1ccc(C(=O)NCCSCc2ccc(Cl)cc2Cl)cc1[N+](=O)[O-] | active: 16.9% |
| COc1ccccc1N(Cc1ccccc1)S(=O)(=O)c1cccc(C(=O)Nc2cc(C)ccn2)c1 | inactive: -2.05% |
| CCCCNC(=O)c1sc(=S)n2c1[nH]c(=O)c1ccccc12 | active: 24.3% |
| O=C(C(=O)N1CCCCCC1)c1c[nH]c2ccccc12 | inconclusive: 3.85% |
| O=S(=O)(O)c1cc(O)c2cc(Nc3ccccc3)ccc2c1 | active: 28.1% |
| COCCN(CCOC)Cc1c(O)ccc2c1O/C(=C\c1ccco1)C2=O | inconclusive: 7.46% |
| CCOC(=O)NC(=O)CSc1ccccn1 | inactive: -2.68% |
| O=C1NN(c2cccc(Br)c2)C(=O)/C1=C\c1ccccc1 | inconclusive: 8.05% |
| CCOc1ccc(S(=O)(=O)N2CCN(C(=S)NCC3CCCO3)CC2)cc1 (stereo not given) | inconclusive: 46% |
